Test results from PubChem BioAssay AID1346428 (National Center for Advancing Translational Sciences (NCATS), 2018).
“And” between values parts separate entries of the source, which are not always exact repeats. Equal values may be shown once. In all, about 48,000 compounds went through this assay and about 1,200 (2.5%) were called active. Not shown: some 2% with an inconclusive outcome.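 Rule for the calls: active = activation of at least 60% and not above a set upper limit (about 1 call in 100 departs from these limits); inconclusive = activation of 40% to 60%, or above that upper limit; inactive = activation under 40%.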 This is one part of the list.

target: Probable G-protein coupled receptor 32 (Homo sapiens) (UniProt O75388); test: qHTS for Agonists of Human Resolvin D1 Receptor DRV1; details: CHO-K1 GPR32 beta-arrestin PathHunter luminescence, 90 min; at 76.9 µM; active compounds read high; zero percent set by DMSO-only wells; note: 0% is about no effect
Chain of UniProt O75388 (O75388 whole entry, looked up): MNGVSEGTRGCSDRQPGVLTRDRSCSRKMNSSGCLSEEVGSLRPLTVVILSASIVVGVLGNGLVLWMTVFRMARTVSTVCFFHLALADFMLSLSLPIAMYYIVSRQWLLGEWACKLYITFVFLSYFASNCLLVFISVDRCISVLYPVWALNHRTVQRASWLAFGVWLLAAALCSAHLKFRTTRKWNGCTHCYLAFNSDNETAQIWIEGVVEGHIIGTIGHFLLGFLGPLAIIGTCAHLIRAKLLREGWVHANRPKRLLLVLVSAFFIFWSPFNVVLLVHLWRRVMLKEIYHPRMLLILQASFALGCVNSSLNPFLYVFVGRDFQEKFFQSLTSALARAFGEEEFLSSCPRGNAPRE
Procedure, shortened: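 Luminescent readout of beta-Gal complementation quantifies ligand-induced beta-arrestin association with GPR32 in CHO-K1 cells; 90 min compound incubation at 37 °C, detection 1 h at room temperature.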

activation, inactive:
Cc1ccn2c(Nc3ccc(C(C)C)cc3)c(-c3cccs3)nc2c1 -22.1%
CCN(CC)S(=O)(=O)c1ccc2nc(NC(=O)c3cccnc3)sc2c1 18.1%
O=C(c1ccc(Cl)cc1)N1CCC(c2ccncc2)CC1 8.45%
COc1cc(-c2noc(-c3ccc(N4CCN(C)CC4)c([N+](=O)[O-])c3)n2)cc(OC)c1OC 0.997%
O=C(Cn1c(=O)ccc2cc(S(=O)(=O)N3CCCC3)ccc21)NCc1ccc(Cl)cc1 15.8%
CC(C)(C)c1ccc(S(=O)(=O)NCc2ccc3c(c2)CCN3C(=O)c2ccccc2)cc1 -7.44%
CCOC(=O)c1cc(S(=O)(=O)NCc2ccccc2)[nH]n1 -25.3%
CCC(CO)NC(=O)C(=O)Nc1c2c(nn1-c1ccc(F)cc1)CSC2 (centres undefined) -12.2%
COc1ccccc1CNS(=O)(=O)c1c(C)nc2scc(C)n2c1=O 9.29%
Cc1cc(Nc2ccc(C)c(Cl)c2)n2nc(Cc3ccccc3)nc2n1 9.97%
CCN(c1ncnc2c1cnn2-c1ccc(C)cc1)C1CCCCC1 -0.0092%
CCOc1ccc(NC(=O)CSc2nc(-c3ccc(OC)cc3)nc3c2Cc2c(CO)cnc(C)c2O3)cc1 -15.4%
CCOc1ccc(NC(=O)c2c(Nc3ccc(OC)cc3OC)sc(C(=O)c3ccc(Cl)cc3)c2N)cc1 -25.2%
COCCn1c(=O)[nH]c2cc(C(=O)NCc3ccccc3Cl)ccc2c1=O 13%
CC[C@H]1CN2CCc3cc(OC)c(OC)cc3[C@@H]2C[C@@H]1C[C@H]1NCCc2cc(OC)c(OC)cc21 3.44% and -9.14%
CCOc1ccc(CCNC(=O)CCc2cn(Cc3ccccc3F)c3ccccc23)cc1OCC -28.7%
CCOC(=O)c1cccc(NC(=O)c2cc3sccc3n2Cc2ccc(Cl)cc2)c1 -3.48%
O=C(O)c1ccc(CNCc2ccc(Cl)cc2)s1 -34.9%
Cc1c(-c2nc(-c3ccc4c(c3)OCO4)no2)nnn1-c1ccc(Br)cc1F -2.44%
Cc1ccccc1NC(=O)Cn1c(SCC(=O)Nc2ccc(F)cc2)nc2ccccc21 -11.6%
CCOC(=O)c1ccc(NC(=O)Cn2c(=O)n(-c3ccc(C)cc3)c(=O)c3c2cnn3C)cc1 19%
CC(C)CN(C(=O)c1cccc(S(=O)(=O)N2CCCCC2)c1)C1CCS(=O)(=O)C1 (centres undefined) -14%
Cc1ccc2nc(Nc3cccc(Cl)c3C)c(-n3nc(C)cc3C)nc2c1 -7.88%
O=C(COc1ccccc1Cl)OCc1cc(=O)n2nc(-c3cccs3)sc2n1 4.9%
Cc1ccc(CNC(=O)Cc2c(C)c3cc4c(C)coc4cc3oc2=O)cc1 -10.4%
CCOC(=O)c1ccc(N2CCN(c3cccc(OC)c3)CC2)c(NC(=O)Nc2ccc(OCC)cc2)c1 -21.2%
CCOC(=O)c1c(NC(=O)c2nc(SCC)ncc2Cl)sc(C(C)=O)c1C -0.81%
CCC(Cn1nnc2ccccc2c1=O)NC(=O)Nc1cccc(C)c1C (centres undefined) -8.7%
COc1ccc(C(=O)OCc2cc(=O)n3nc(-c4cccs4)sc3n2)cc1 31.9%
Cc1ccc(S(=O)(=O)Cc2ccc(C(=O)N3CCN(c4cccc(C)c4C)CC3)o2)cc1 -4.67%
CCC(=O)N1CCc2cc(Br)cc(S(=O)(=O)CCC(=O)N3CCN(c4cccc(C(F)(F)F)c4)CC3)c21 -3.02%
Cc1ccc(NC(=O)C2CCCN(c3nnc(C)c4c(C)n(-c5ccccc5)nc34)C2)c(Cl)c1 (centres undefined) 11.9%
O=[N+]([O-])c1cc(-c2nc(-c3ccccc3)no2)ccc1N1CCCCC1 -19.9%
CC1=C(C(=O)Nc2ccccc2)C(c2ccncc2)n2nc(SCc3ccccc3Cl)nc2N1 (centres undefined) 2.52%
O=C(Cn1c(=O)n(Cc2ccco2)c(=O)c2ccccc21)Nc1ccc(Cl)cc1Cl -19.7%
N[C@@H](Cc1cnc[nH]1)C(=O)O 2.49%
CC(=O)C1=C(OC(=O)C(C)C)c2ccccc2S(=O)(=O)N1Cc1ccccc1 -29.7%
O=C(NCCCc1nc2ccccc2n1Cc1ccccc1Cl)C1CCCCC1 0.166%
CCC(=O)N1CCc2cc(Br)cc(S(=O)(=O)NCCc3ccc(OC)c(OC)c3)c21 10.4%
Cc1[nH]n2c(=O)cc(-c3ccccc3Cl)nc2c1-c1ccccc1 -45.8%
CCn1c(SCc2ccccc2)nnc1-c1nonc1NC(C)=O 3.6%
CCCCCCN(CCCCCC)C(=O)Cc1c(-c2ccc(F)cc2)[nH]c2ccccc12 -29.9%
CCN(CC)CCNC(=O)c1ccc(NC(C)=O)cc1 1.33% and -1.23%
CCOC(=O)C1CCCN(C(=O)Cn2ncc3c([nH]c4ccccc43)c2=O)C1 (centres undefined) 13.7%
COc1ccc(C(CC(=O)Nc2ccc(F)c(Cl)c2)N2Cc3ccccc3C2=O)cc1OC (centres undefined) -5.17%
Cc1cc(NC(=O)CN2C(=O)C(C)(C)c3ccccc32)ccc1Br 22.3%
CCN(C(=O)CSc1nc2ccccc2n1CC(=O)Nc1cccc(C#N)c1)c1ccccc1 -25.5%
Cc1ccc(CNC(=O)CC2Oc3ccccc3NC2=O)cc1 (centres undefined) -4.1%
Cc1ccc(N2CC3=C(C2=O)C(c2ccc(Br)cc2)NC(=O)N3C)cc1 (centres undefined) -25.2%
O=C(Cn1c(=O)oc2cc(S(=O)(=O)N3CCCCCC3)ccc21)Nc1cccc(C(F)(F)F)c1 22.6%
Cc1ccccc1CNC(=O)c1ccc(NC(=O)c2nsc3ccccc23)cc1 -20.1%
Cc1ccc(-c2nc(C(=O)NCc3ccc(Cl)cc3)c3n2CCCCC3)cc1 -36.6%
Cc1ccccc1Nc1sc(C(=O)c2ccc3c(c2)OCO3)c(N)c1S(=O)(=O)c1ccccc1 -19.8%
O=C1Cc2cc(S(=O)(=O)N3CCN(c4ccccc4)CC3)ccc2N1 -2.82%
CCOC(=O)c1cnn(-c2ccc(OC)cc2)c1C1CCN(C(=O)OC(C)(C)C)CC1 -6.94%
COC(=O)c1ccc(NC(=O)CCc2c(C)nn(-c3ccc(N4CCCC4)nn3)c2C)cc1 -7.91%
COc1ccccc1N1CCN(C(=O)CCc2c(C)nn(-c3ccc(N4CCCC4)nn3)c2C)CC1 -6.85%
CC1CCCCN1c1csc2ccc(F)cc2c1=O (centres undefined) 17.8%
Cn1nc(C(=O)Nc2cc(F)ccc2F)c2c1-c1ccccc1SC2 2.61%
Cc1cccc(-c2nc(SCc3ccc(Br)cc3)n3[nH]c(=O)cc3n2)c1 -0.167%
CSc1nc2sc3c(c2c(=O)n1-c1ccc(C)c(Cl)c1)CCN(C(C)=O)C3 -14.8%
COC(=O)c1ccc(NC(=O)CSc2nc(=O)n(Cc3ccco3)c3c2CCC3)cc1 -18%
CN1C(=O)CC(C)(c2ccccc2)C1=O (centres undefined) -4.19%
CCOc1ccc(CCNC(=O)c2ccc3c(c2)c(C)c(C)n3C)cc1 -8.26%
COc1cc(C(=O)N(Cc2ccc(C(C)C)cc2)C2CCS(=O)(=O)C2)cc(OC)c1OC (centres undefined) -13.8%
CCOc1ccc(CCNC(=O)CCc2c(C)nc3c(c(C)nn3-c3ccccc3)c2C)cc1OCC -3.47%
COc1cc(OC)c(NC(=O)c2c(C)oc3ncn(C)c(=O)c23)cc1Cl 12%
CCOc1ccc(NC(=O)c2ccc(NC(=O)CCS(=O)(=O)c3cccs3)cc2)cc1 7.06%
Cc1ccc(C2CC(=O)N(Cc3ccccc3F)c3c2c(C)nn3-c2nc(C)cc(C)n2)cc1 (centres undefined) -11.2%
Cc1ccc(Cc2nc3ccccc3nc2SCC(=O)N2CCc3ccccc32)cc1 0.796%
CCn1cc(C(=O)N2CCN(c3cccc(Cl)c3)CC2)c(=O)c2cc(S(=O)(=O)N3CCOCC3)ccc21 -3.24%
C[C@]12CCC(=O)C=C1CC[C@H]1[C@@H]3CC[C@](O)(C(=O)CO)[C@@]3(C)C[C@H](O)[C@@]12F -8.35%
COc1ccc(NC(=O)Nc2nnc(N3CCCCCC3)s2)cc1 7.4%
CN(C)CCNC(=O)C1CCN(c2nc3ccccc3[nH]2)CC1 4.14%
Cc1c(NC(=O)c2cc([N+](=O)[O-])ccc2N2CCOCC2)cccc1-c1nc2ccccc2o1 6.57%
Cc1ccc(NC(=O)c2nc(S(C)(=O)=O)ncc2N(Cc2ccccc2)Cc2ccco2)c(C)c1 -22.3%
N=C(N)SCCc1cnc[nH]1 3.65%
Cc1ccc(C(=O)Nc2c(-c3ccccc3)nc3ccccn23)cc1C -7.25%
COc1ccc(NC(=O)c2nnn(Cc3ccccc3C)c2N)c(OC)c1 19.2%
CNC[C@H](O)c1cccc(O)c1 -35.8% and -4.55%
Cc1nn(-c2ccc(F)cc2)c(-n2cccc2)c1C(=O)N1CCN(c2ccc(F)cc2)CC1 28%
O=C(CSc1ccc(-c2ccccn2)nn1)Nc1ccc(F)c(F)c1 5.2%
Cc1ccc(CNC(=O)Cn2c3ncccc3c(=O)n2-c2ccccc2)cc1 16.2%

activation, active:
COc1cc(NC(=O)c2nnn(Cc3ccc(F)cc3)c2N)cc(OC)c1 79.4%
